# Data from publication PMC4336329 (PLoS ONE, 2015).
# Hit rate of the full screen: of about 310,000 compounds, about 2,200 (0.71%) showed an effect of 50% or more. The effect is printed as a negative number. The list shows a part of the results.
# Target: human ether-à-go-go-related gene (hERG) potassium channel (human, UniProt Q12809)
# Assay: primary screen, population patch clamp on CHO cells stably expressing hERG
# Sequence of human ether-à-go-go-related gene (hERG) potassium channel (Q12809 whole entry, looked up): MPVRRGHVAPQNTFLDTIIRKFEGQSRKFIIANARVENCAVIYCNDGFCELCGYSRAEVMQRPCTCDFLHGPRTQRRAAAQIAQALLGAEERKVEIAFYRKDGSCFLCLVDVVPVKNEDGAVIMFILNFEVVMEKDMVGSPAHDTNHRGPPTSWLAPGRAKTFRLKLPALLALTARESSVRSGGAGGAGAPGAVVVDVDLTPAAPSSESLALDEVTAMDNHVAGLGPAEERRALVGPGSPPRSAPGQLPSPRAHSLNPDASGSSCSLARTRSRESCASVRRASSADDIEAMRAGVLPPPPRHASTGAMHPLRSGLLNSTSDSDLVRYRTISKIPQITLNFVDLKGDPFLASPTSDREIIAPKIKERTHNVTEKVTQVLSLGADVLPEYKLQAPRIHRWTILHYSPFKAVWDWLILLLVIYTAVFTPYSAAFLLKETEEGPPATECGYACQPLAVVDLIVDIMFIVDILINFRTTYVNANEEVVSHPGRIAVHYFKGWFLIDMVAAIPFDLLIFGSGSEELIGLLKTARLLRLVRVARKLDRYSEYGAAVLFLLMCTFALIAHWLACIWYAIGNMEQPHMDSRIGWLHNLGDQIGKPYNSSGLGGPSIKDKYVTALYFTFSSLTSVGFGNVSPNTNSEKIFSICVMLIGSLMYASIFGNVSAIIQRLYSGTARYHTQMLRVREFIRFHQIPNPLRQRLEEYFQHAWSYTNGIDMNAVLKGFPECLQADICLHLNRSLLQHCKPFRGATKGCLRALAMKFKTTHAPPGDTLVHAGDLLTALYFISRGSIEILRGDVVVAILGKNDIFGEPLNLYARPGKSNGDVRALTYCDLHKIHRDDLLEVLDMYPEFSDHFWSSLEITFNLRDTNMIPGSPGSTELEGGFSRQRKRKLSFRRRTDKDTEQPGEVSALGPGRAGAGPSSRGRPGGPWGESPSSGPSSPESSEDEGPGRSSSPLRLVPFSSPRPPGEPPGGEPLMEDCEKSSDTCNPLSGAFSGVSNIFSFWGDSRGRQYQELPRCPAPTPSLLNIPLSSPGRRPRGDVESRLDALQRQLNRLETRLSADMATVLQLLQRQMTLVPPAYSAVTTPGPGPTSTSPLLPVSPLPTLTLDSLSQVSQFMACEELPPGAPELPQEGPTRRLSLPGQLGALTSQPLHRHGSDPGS
row,SMILES,"hERG current change (%, negative = inhibition) at 1uM [%]"
1,CCOC(=O)c1c(NC(=O)COC(=O)c2ccccn2)sc(C)c1C,7.8
2,Cc1ccc(C(=O)Nc2ccccc2C(=O)NCc2cccnc2)cc1,-2.04
3,CCOc1ccc(CN(C)CC(O)COC(c2ccc(OC)cc2)c2ccc(OC)cc2)cc1 (centres unmarked),-81.9
4,Cc1ccc2c(c1)/C(=C/c1ccccc1F)C(=O)N2,7.08
5,COc1cc(C2Nc3ccccc3C(=O)N2c2ccc3c(c2)OCCO3)ccc1OCC(C)C (centres unmarked),11.8
6,CCC(C)Sc1nnc(CSc2nc(C)cc(C)n2)n1C (centres unmarked),0.227
7,COc1ccc(OC)c(-n2nnnc2SCC(=O)Nc2ccc(C(=O)N3CCCCC3)cc2)c1,0.144
8,CCCSc1nsc(SCCC)c1C(N)=O,-5.9
9,CCC(C)N(C(=O)COc1ccc(Cl)c2cccnc12)C1CCS(=O)(=O)C1 (centres unmarked),8.91
10,COc1ccccc1NC(=S)NCCc1ccc(S(N)(=O)=O)cc1,9.24
11,Cc1cc(C(=O)N2CCCC(N3CCN(c4ccccc4C)CC3)C2)nc(C)n1 (centres unmarked),6.8
12,O=C(NCc1ccco1)c1cc2n(n1)C(C(F)(F)F)CC(c1ccc(Cl)c(Cl)c1)N2 (centres unmarked),-0.317
13,CN1/C(=C\C(=O)COC(=O)CN2C(=O)C3CC=CCC3C2=O)C(C)(C)c2ccccc21 (centres unmarked),15.9
14,O=C(CSc1nc2ccccc2c(=O)n1NC(=O)Cc1ccccc1)NCc1ccco1,0.614
15,CC(=O)c1cccc(NC(=S)NCCCCc2ccccc2)c1,12.4
16,C=CCc1cc(C)ccc1OCCCn1ccnc1.O=C(O)C(=O)O,15.4
17,COc1ccccc1C(=O)NCc1ccco1,6.96
18,CCc1ccc(CCC(=O)Nc2ccc(C)cc2C)o1,-5.31
19,CCCc1nnc(SCC(=O)Nc2ccc(OC)cc2)n1N,11.1
20,CCCN(CC(=O)Nc1ccccc1C)C(=O)c1cccc(S(=O)(=O)N2CCN(c3ccccc3)CC2)c1,-11.7
21,CSc1ccccc1NC(=O)c1ccccc1N(C)S(C)(=O)=O,4.38
22,CCC1(C)Cc2c(sc3nnn(CC(=O)Nc4cccc5ccccc45)c(=O)c23)CO1 (centres unmarked),7.05
23,COC(=O)c1cc(=O)n(Cc2cccs2)c(=Nc2ccccc2)s1,9.66

row,SMILES,"hERG current change (%, negative = inhibition) at 1uM [%]"
1,CC(=O)c1cccc(NC2c3ccccc3C(=O)N2Cc2ccco2)c1 (centres unmarked),1.85
2,O=C(CCc1nc2ccccc2s1)N1CCN(c2ccccc2)CC1,5.17
3,Cc1ccc(-c2nnc(COC(=O)c3ccco3)o2)cc1,10.5
4,COc1cscc1C(=O)O,1.63
5,CCc1ccc2c(CC(=O)Nc3nnc(C4CC4)s3)coc2c1.CN(C)C=O,-1.38
6,CCCCn1c(=N)c(S(=O)(=O)c2ccc(Br)cc2)cc2c(=O)n3cccc(C)c3nc21,-1.27
7,Cc1ccccc1C(=O)c1cccn1CC(=O)NCCCc1ccccc1,6.74
8,C=CCc1cccc2cc(C(=O)NC3CCCCC3)c(=O)oc12,5.32
9,Cc1ccc(C2=[N+]([O-])C3(CCCCC3=O)N(O)C2(C)C)cc1 (centres unmarked),7.99
10,CNS(=O)(=O)c1ccc2c(c1)oc(=O)c1cc(S(=O)(=O)NC)ccc12,8.57
11,O=C(CNC(=O)c1cccc(Br)c1)NCCc1nc2ccccc2[nH]1,4.05
12,O=C(NCCC(=O)N1CCCC1)c1ccccc1Cl,18.6
13,CN(c1ccccc1)S(=O)(=O)c1ccc(C(=O)NCc2cccs2)cc1,8.18
14,O=C(N/N=C/c1ccc(Cl)cc1Cl)c1ccc(-n2cnnn2)cc1,11.8
15,COc1ccc(S(=O)(=O)N(C)C)cc1NCC(=O)Nc1ccc(F)cc1F,9.56
16,CC(C)CN(C(=O)CCCSc1nc2ccccc2[nH]1)c1c(N)n(Cc2ccccc2)c(=O)[nH]c1=O,-14.8
17,COc1cc([N+](=O)[O-])ccc1NC(=O)C1CCCN(S(C)(=O)=O)C1 (centres unmarked),11.4
18,CC(C)c1ccc(N2C(=O)CC(NNC(=O)c3cccnc3)C2=O)cc1 (centres unmarked),14.5
19,COc1ccc(S(=O)(=O)N2CCN(c3ccc(F)cc3)CC2)cc1OC,13.6
20,Cc1ccc(/C=N/NC(=O)Cc2cccn2C)cc1,2.63
21,CCC1(CC)NC(=O)N(CC(=O)OCC(=O)Nc2ccccc2[N+](=O)[O-])C1=O,7.55
22,CN(C)S(=O)(=O)N1CCCC(C(=O)c2ccc(C(F)(F)F)cc2)C1 (centres unmarked),4.24
23,O=C(c1cc(-c2cccc(Cl)c2)on1)N1CCCC1,7.75

row,SMILES,"hERG current change (%, negative = inhibition) at 1uM [%]"
1,Cc1cccc(C(=O)NCC(=O)OCC(=O)N2CC3(C)CC2CC(C)(C)C3)c1 (centres unmarked),-10.4
2,C=CCn1c(COc2ccccc2)nnc1SCC(=O)C(C)(C)C,3.55
3,O=C(Nc1ccccc1F)OC1CN2CCC1CC2 (centres unmarked),11.5
4,COc1ccc2c(c1)CCc1cn[nH]c1-2,17
5,O=C(NCc1ccco1)C1CCN(c2nc3ccccc3n2Cc2ccccc2F)CC1,-62.8
6,Cn1c(=O)c2c(nc(CN3CCN(c4ccc(F)cc4)CC3)n2Cc2ccccc2F)n(C)c1=O,-1.72
7,CN1CCC(N(C)C(=O)c2ccccc2F)CC1.Cl,19.3
8,Cc1nn(C2CCCO2)c(=O)nc1N (centres unmarked),21.5
9,COc1ccc(CCNC(=O)CSc2nc3ccccc3o2)cc1OC,12.1
10,Cl.O=C(NCCOC(=O)c1ccccc1C(=O)OCCNC(=O)c1cccnc1)c1cccnc1,13.7
11,CC(=O)Nc1ccc(S(=O)(=O)Nc2c(NC3CCCCC3)c3ccccc3oc2=O)cc1,11.6
12,COc1cc(CN2CCN(c3ccccc3F)CC2)cc(OC)c1O,2.78
13,O=C(Nc1ccccc1C(=O)Nc1ccc(Br)cn1)c1cccc([N+](=O)[O-])c1,15
14,CN1CCN(C(=O)Nc2ccc([N+](=O)[O-])cc2)CC1,-2.87
15,O=C(O)c1cc(NC(=O)c2ccccc2F)cc(NC(=O)c2ccccc2F)c1,10.9
16,FC(F)(F)c1cccc(-n2cccc2/C=N/n2cnnc2)c1,-7.64
17,CCc1ccc(S(=O)(=O)NCCc2cn3ccc(C)cc3n2)s1,-10.8
18,S=C(Nc1ccccc1Cl)N1CCOCC1,7.64
19,CC1(C)N2CC3([N+](=O)[O-])CN1CC([N+](=O)[O-])(C2)C3,8.55
20,O=C(CN1CCN(Cc2ccc(Cl)cc2)CC1)N/N=C/c1c[nH]c2ccccc12,-1.75
21,C/C=C(\C)C(=O)NCCN1C2=NC[C@H](C(C)C)N2C[C@@H]1Cc1ccc(OC)cc1,-46.6
22,O=C(NC1CC1)c1ccc2c3c(cccc13)CC2,10.8
23,CCn1c(SCCC#N)nnc1-c1ccncc1,0.3

row,SMILES,"hERG current change (%, negative = inhibition) at 1uM [%]"
1,COc1ccc(NC(=S)Nc2ccccc2Cl)cn1,-2.22
2,N#Cc1c(NC(=O)CSc2nc(-c3ccccc3)cc(C(F)(F)F)n2)sc2c1CCC2,10.6
3,Cc1c(C(=O)Nc2c(F)cccc2F)sc2ncn(CC(=O)N3CCCCC3)c(=O)c12,17.4
4,COc1ccc2nc(C)cc(SCC(=O)N/N=C/c3cccc4ccccc34)c2c1,7.88
5,O=C(NNc1nc(-c2ccccc2)cs1)c1ccco1,5.62
6,COC(=O)CSc1ccc2nnc(CCNS(=O)(=O)c3ccc(C)cc3)n2n1,15.3
7,COc1ccc(N(CC(=O)N2CCCCC2)S(=O)(=O)c2c(C)nn(C)c2C)cc1,5.99
8,COc1ccc(C(=O)/C=C2/C(=O)Nc3ccccc32)cc1OC,12.7
9,O=c1[nH]c(=O)n(Cc2ccco2)c(O)c1C=NC1CCN(Cc2ccccc2)CC1,-26.4
10,Cc1cccn2c(=O)c3cc(S(=O)(=O)c4ccc(F)cc4)c(=N)n(Cc4ccco4)c3nc12,18.4
11,C/C(=N\NC(=O)CSc1nc(C)cc(C)n1)c1cccc([N+](=O)[O-])c1,5.24
12,CC(C)(C)C1CCc2c(sc3nc(SCC(N)=O)nc(N)c23)C1 (centres unmarked),0.813
13,O=C(CC1CCCCC1)NCc1ccc(F)cc1,12.3
14,Cc1ccc(C(=O)OCC(=O)NC(=O)Cc2ccccc2)c(O)c1,11.8
15,CCOc1ccc(C(=O)Nc2nnn(CC)n2)cc1,11.3
16,O=C(Nc1ccc(Br)cc1)C1C2C=CC3(O2)C1C(=O)N(CCN1CCOCC1)C3C(=O)NC1CCCCC1 (centres unmarked),5.53
17,Cl.c1ccc2c(c1)CCCc1cc(NCCN3CCOCC3)nnc1-2,1.26
18,O=CNc1ccccc1,7.74
19,CCOC(=O)c1c(-n2c(C)cc(C=C3C(=O)NC(=O)NC3=O)c2C)sc2c1CCCC2,2.05
20,CCC(C)(C(=O)NC1CCCC1)N(C(=O)c1cnccn1)c1c(C)n(C)n(-c2ccccc2)c1=O (centres unmarked),4.22
